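Five concentrations, 48 hours, 96-well plates. Here, GI50 denotes the concentration required for 50% inhibition of growth. TGI denotes the concentration required for complete inhibition of growth.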 Bounds are passed on as bounds.

Results on 1 compound are retold here after PubChem BioAssay (NCI).

This test has as its system NCI-H322M lung. The test is described as follows: NCI-60 cell line screen, 48 h.

`Oc1ccc(-c2nnc(SCc3ccc(O)c4ncccc34)n2-c2ccccc2)cc1`: the GI50 is 524 nM and the TGI was more than 100000 nM.
